According to patent US20260193317A1, “COMBINATION THERAPY WITH ACTRIIB RECEPTOR VARIANTS AND GLP-1 AGONISTS” (35PHARMA Inc., priority 2023, published 2026):

Key:
BMP-10 = target: T1, BMP-10 (UniProt O95393 317-424); assay: cell-based or functional assay
T1 sequence (looked up): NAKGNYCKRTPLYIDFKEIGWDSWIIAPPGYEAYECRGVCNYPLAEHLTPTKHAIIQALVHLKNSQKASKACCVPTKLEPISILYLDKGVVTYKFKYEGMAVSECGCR

BMP-9 [1] = target: T2, BMP-9 (UniProt Q9UK05 320-429); assay: cell-based or functional assay
T2 sequence (looked up): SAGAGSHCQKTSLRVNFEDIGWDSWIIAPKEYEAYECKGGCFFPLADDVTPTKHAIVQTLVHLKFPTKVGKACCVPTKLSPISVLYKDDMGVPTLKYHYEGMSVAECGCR

activin B = target: T3, activin B (UniProt P09529 293-407); assay: cell-based or functional assay
T3 sequence (looked up): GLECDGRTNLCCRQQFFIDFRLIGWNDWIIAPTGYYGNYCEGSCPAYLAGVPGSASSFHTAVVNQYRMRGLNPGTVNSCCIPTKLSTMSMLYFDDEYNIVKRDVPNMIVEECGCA

[2] = target: T4, recombinant human activin A (human, UniProt P08476 311-426); assay: cell-based or functional assay
T4 sequence (looked up): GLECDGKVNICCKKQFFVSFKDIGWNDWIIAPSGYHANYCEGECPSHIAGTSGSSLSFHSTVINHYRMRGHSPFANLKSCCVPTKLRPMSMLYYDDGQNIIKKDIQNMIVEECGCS

GDF-8 = GDF-8 (UniProt O14793 267-375); assay: cell-based or functional assay
GDF-11 = GDF-11 (UniProt O95390 299-407); assay: cell-based or functional assay
BMP-9 [3] = target: T5, BMP-9 (Homo sapiens, UniProt Q9UK05); assay: Small-scale BMP-9 ELISA with CHO supernatants; format: binding; settings: BMP-9 10 ng/mL
T5 sequence (Q9UK05 320-429): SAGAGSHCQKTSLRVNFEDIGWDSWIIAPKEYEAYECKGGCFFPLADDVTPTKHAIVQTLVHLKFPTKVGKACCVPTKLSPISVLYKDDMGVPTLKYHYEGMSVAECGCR
Experimental: (§1) Small-scale testing of ActRIIB-ECD fusion proteins. Additional investigation of a series of exemplary agents was performed using proteins expressed in CHO cells. Briefly, DNA encoding the ActRIIB-ECD-Fc fusion constructs was transfected in cells seeded in 12-well plates in a final volume of 1 ml. After 7 days, the supernatant was harvested, clarified, and the amount of expressed protein in each well was quantified using standard methods. The potency of each agent for inhibition of activin A, BMP-9 and BMP-10 was determined in three separate assays.
The next day, the plate was washed three times. […] Expressed proteins in the supernatants were diluted 1 in 2 in assay diluent (0.5% BSA, 0.05% tween-20 in PBS) and 100 μl was added to the 96-well plate in technical duplicates. After a 1.5-hour incubation at RT, the plate was washed three times. […] In this assay, a loss of signal indicates less binding of the exemplary agent to BMP-9. Results are expressed as a % of the signal obtained with wild-type ActRIIB-Fc (P75).

activin A = target: T6, activin A (Homo sapiens, UniProt P08476); assay: Small-scale activin A ELISA with CHO supernatants; settings: 1 μg/mL protein, 30 ng/mL activin A, loss of signal = binding
T6 sequence (P08476 311-426): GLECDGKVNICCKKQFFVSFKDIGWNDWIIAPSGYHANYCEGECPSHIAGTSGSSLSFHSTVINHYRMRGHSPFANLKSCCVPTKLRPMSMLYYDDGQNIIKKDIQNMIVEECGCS
Experimental: as §1
The next day, the plate was washed three times with buffer (Biolegend #421601). […] Expressed proteins in the supernatants described above were diluted to 2 μg/mL in assay diluent (0.5% BSA, 0.05% tween-20 in PBS), mixed 1:1 with recombinant human activin A (R&D #338-AC, 60 ng/mL, diluted in assay diluent). Complexes were immediately added to the 96-well plate in technical duplicates and incubated for 1 h at RT (concentration of expressed protein and activin A on the plate were 1 μg/mL and 30 ng/mL, respectively). […] In this assay, a loss of signal indicates binding of the exemplary agent to activin A, which prevents activin A binding to the anti-activin A antibody on the plate. Results are expressed as a % of the signal obtained with wild-type ActRIIB-Fc (P75).

Chain of GDF-11 (O95390 299-407 limits assumed): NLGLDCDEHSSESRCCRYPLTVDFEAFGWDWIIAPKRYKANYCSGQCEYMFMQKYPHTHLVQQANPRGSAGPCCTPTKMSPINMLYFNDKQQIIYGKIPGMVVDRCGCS

Molecule	BMP-10 IC50; BMP-reporter HepG2 cells (BMP-10)	BMP-9 IC50; BMP-reporter HepG2 cells (BMP-9 [1])	Activin B IC50; TGFβ-reporter HEK293 cells (activin B)	Activin A IC50; TGFβ-reporter HEK293 cells [2]	GDF-8 IC50; TGFβ-reporter HEK293 cells (GDF-8)	GDF-11 IC50; TGFβ-reporter HEK293 cells (GDF-11)	BMP-9 binding, ELISA signal relative to P75 (BMP-9 [3])	activin A binding, ELISA signal relative to P75 (activin A)
P75 (Fc fusion) ETRECIYYNANWELERTNQSGLERCEGEQDKRLHCYASWRNSSGTIELVKKGCWLDDFNCYDRQECVATEENPQVYFCCCEGNFCNERFTHLPEAGGPEVTYEPPPTG[human IgG1 Fc and a few adjoining residues not spelt out]	2 nM	3 nM	1.4 nM	2.3 nM	0.67 nM	0.75 nM		
P751 (Fc fusion) ETRECIYYNANWELERTNQSGLERCEGEQDKRYHCYASWRNSSGTIELVKKGCWLDDFNCYDRQECVATEENPQVYFCCCEGNFCNERFTHLPEAGGPEVTYEPPPTGGGGSGGGGSGG[human IgG1 Fc and a few adjoining residues not spelt out]	2.4 nM	18 nM	0.8 nM	0.82 nM	0.3 nM	0.25 nM		
P750 (Fc fusion) ETRECIYYNANWELERTNQSGLERCEGEQDKRRHCYASWRNSSGTIELVKKGCWLDDFNCYDRQECVATEENPQVYFCCCEGNFCNERFTHLPEAGGPEVTYEPPPTGGGGSGGGGSGG[human IgG1 Fc and a few adjoining residues not spelt out]	4.7 nM	21 nM	1 nM	0.76 nM	0.58 nM	0.51 nM		
P1182 (Fc fusion) ETRECIYYNANWELERTNQSGLERCEDEQDKRYHCYASWRNSSGTIELVKKGCWLDDFNCYDRQECVATEENPQVYFCCCEGNFCNERFTHLPEAGGPEVTYEPPPTGGGGSGGGGSGG[human IgG1 Fc and a few adjoining residues not spelt out]	2.4 nM	265 nM	7.7 nM	0.85 nM	0.37 nM	0.46 nM		
P1185 (Fc fusion) ETRECIYYNANWELERTNQSGLERCEEEQDKRYHCYASWRNSSGTIELVKKGCWLDDFNCYDRQECVATEENPQVYFCCCEGNFCNERFTHLPEAGGPEVTYEPPPTGGGGSGGGGSGG[human IgG1 Fc and a few adjoining residues not spelt out]	2.3 nM	791 nM	5.2 nM	1 nM	0.33 nM	0.44 nM		
P1374 (Fc fusion) ETRECIYYNANWELERTNQSGLERCEGEQDKRWHCYASWRNSSGTIELVKKGCWLDDFNCYDRQECVATEENPQVYFCCCEGNFCNERFTHLPEAGGPEVTYEPPPTGGGGSGGGGSGGGGSGGGG[human IgG1 Fc with changes not spelt out]			1.9 nM	0.53 nM	0.37 nM	0.4 nM		
P1389 (Fc fusion) ETRECIYYNANWELERTNQSGLERCETEQDKRWHCYASWRNSSGTIELVKKGCWLDDFNCYDRQECVATEENPQVYFCCCEGNFCNERFTHLPEAGGPEVTYEPPPTGGGGSGGGGSGGGGSGG[human IgG1 Fc and a few adjoining residues not spelt out]	> 100 nM	> 100 nM	1 nM	0.52 nM	0.4 nM	0.39 nM		
P1406 (Fc fusion) ETRECIYYNANWEEERTNQSGLERCEGEQDKRWHCYASWRNSSGTIELVKKGCWLDDFNCYDRQECVATEENPQVYFCCCEGNFCNERFTHLPEAGGPEVTYEPPPTGGGGSGGGGSGGGGSGG[human IgG1 Fc and a few adjoining residues not spelt out]	> 100 nM	> 1000 nM	> 20 nM	1.7 nM	0.33 nM	0.37 nM		
P1371 (Fc fusion, also called Protein 1371) ETRECIYYNANWELERTNQSGLERCEGEQDKRWHCYASWRNSSGTIELVKKGCWLDDFNCYDRQECVATEENPQVYFCCCEGNFCNERFTHLPEAGGPEVTYEPPPTGGGGSGGGGSGGGG[human IgG1 Fc with changes not spelt out]			2.7 nM	0.56 nM	0.23 nM	0.6 nM		
P1273: hActRIIB L33Y, L55Q, 14 aa linker, IgG1-DL Fc; SEQ ID 227 (protein) ETRECIYYNANWELERTNQSGLERCEGEQDKRYHCYASWRNSSGTIELVKKGCWQDDFNCYDRQECVATEENPQVYFCCCEGNFCNERFTHLPEAGGPEVTYEPPPTGGGGSGGGGSGG[human IgG1 Fc and a few adjoining residues not spelt out]							near-undetectable binding to BMP-9	lower binding to activin A relative to P75
P1275: hActRIIB L33Y, L55I, 14 aa linker, IgG1-DL Fc; SEQ ID 229 (protein) ETRECIYYNANWELERTNQSGLERCEGEQDKRYHCYASWRNSSGTIELVKKGCWIDDFNCYDRQECVATEENPQVYFCCCEGNFCNERFTHLPEAGGPEVTYEPPPTGGGGSGGGGSGG[human IgG1 Fc and a few adjoining residues not spelt out]							very low BMP-9 binding	comparable binding to activin A
P1206: hActRIIB L33F, 14 aa linker, IgG1-DL Fc; SEQ ID 206 (protein) ETRECIYYNANWELERTNQSGLERCEGEQDKRFHCYASWRNSSGTIELVKKGCWLDDFNCYDRQECVATEENPQVYFCCCEGNFCNERFTHLPEAGGPEVTYEPPPTGGGGSGGGGSGG[human IgG1 Fc and a few adjoining residues not spelt out]							intermediate binding between P444 and P75	potent activin A binding
P1231: hActRIIB L33K, 14 aa linker, IgG1-DL Fc; SEQ ID 213 (protein) ETRECIYYNANWELERTNQSGLERCEGEQDKRKHCYASWRNSSGTIELVKKGCWLDDFNCYDRQECVATEENPQVYFCCCEGNFCNERFTHLPEAGGPEVTYEPPPTGGGGSGGGGSGG[human IgG1 Fc and a few adjoining residues not spelt out]							intermediate binding between P444 and P75	potent activin A binding
